Test results published in the RNAGym collection of RNA variant scans (doi:10.1093/nar/gkz1192).
Read counts are not given, so values of variants with three or more changes are uncertain.

B1: CPEB3 Ribozyme (parent)
chain: UAACAGGGGGCCACAGCAGAAGCGUUCACGUCGCAGCCCCUGUCAGAUUCUGGUGAAUCUGCGAAUUCUGCUGUAUAUCUC

Variants of: B1
Test: self-cleavage, relative activity (ratio to wild type); higher = more cleavage; in vitro, sequencing
Method in brief: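 For each CPEB3 ribozyme variant, relative activity is its cleaved/total read fraction divided by the unmutated ribozyme's. Barcoded error-prone PCR libraries were transcribed by T7 RNA polymerase (5 hours, 37°C) and held in DNase I for 15 min before an EDTA stop, with cleavage occurring throughout. Template-switching reverse transcription and Illumina sequencing were used to read the RNAs. A 5-read minimum applied, and results are the mean of three batches.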

Q: For UAACAGGGGACCACAGCUGAAGCGUUCACGUCGCAGCCCCUGUCAGAUUCUGGUGAGUCUGCGAAUUCUGCUGUAUAUCUC, which self-cleavage is on record?
A: 0.06

Q: With UAACAGGGUGCCACAGCAGAAGCGUUCACGUCGCAGCCCCUGUCAGACUCUGGUGAAUCUGCGAGUUCUGCCGUAUAUCUC as the variant, how does the self-cleavage read?
A: 0.05

Q: Which self-cleavage does the source give for UAACAGGGGACCACAGCAGAGGCGUCCACGUCGCAGCCCCUGUCAGAUUCUGGUGAAUCCGCGAAUUCAGCUGUAUAUCUC here?
A: 0.05

Q: With UAACAGGGUGCCACAGCAGAAGCGUUCACGUCGCAGCCCCUGUCAGAUUCCGGUGAGUCUGCGAACUCAGCUGUAUAUCUC as the variant, how does the self-cleavage read?
A: 0.05

Q: Which self-cleavage does the source give for UAACAGGGUGCCACAGCAGAAGCGUUCACGUCGCAGCCCCUGUCAGAUUCUGGUGAAUCUGCGAAUCCUGCCGUAUAUCUC here?
A: 0.06

Q: For UAACAGGGGACCACAGCAGGAGCGUUCACGUCGCAGCCCCUGACAGACUCUGGUGAAUCUACGAAUUCUGCCGUAUAUCUC, which self-cleavage is on record?
A: 0.03

Q: For UAACAGGGGACCACGGCAGAAGCGUCCACGUCGCAACCCUUGUCAGAUUCUGGUGGAUCUGCGAAUUCUGCUGUAUAUCUC, which self-cleavage is on record?
A: 0.04

Q: Which self-cleavage does the source give for UAACAGGGGACCACAGCAGAAGCGUUCACGUCGCUGCCCCCGUCAGAUUCUGGCGAAUCUGCGAGUUCUGCUGUAUAUCAC here?
A: 0.04

Q: Which self-cleavage does the source give for UAACAGGGGACCACAGCGGAAGCGUUCACGUCGCAGCCCCUGUCAGAUUCUAGUGAAUCUGCGCAUUCUGCUGUAUAUCUC here?
A: 0.05

Q: Which self-cleavage does the source give for UAACAGGGGACCACAGCAGAUGCGUUCACGUCGCUGCCCCUGUCAGACUCUGGUGAAUCUGCGAAUUCUGCUGUAUAUCUC here?
A: 0.08

Q: Which self-cleavage does the source give for UAACAGGGGACCACAGCAGAGGCGUUCACGUCGCAGCCCCUGUCAGGUUUUGGUGAAUCUGCGAAUUCUGCUGUAUAUCAC here?
A: 0.09

Q: With UAACAGGGGACCACAGCAGAGGCGUUCACGUCGCAGCCCAAGUCAGACUCUGGUGAAUCCGCGAAUUCUGCUGUAUAUCUC as the variant, how does the self-cleavage read?
A: 0.03

Q: With UAACAGGGUGCCACAGCAGAAGCGUUCACGUCGCAGCCCCUGUCAGACUCUGGUGAAUCUGCGAGUUCUGCUGCAUAUCUC as the variant, how does the self-cleavage read?
A: 0.12

Q: For UAACAGGGGACCACAGCUGAGGCGUUCACGUCGCAGCCCCUGACAGAUUCUGGUGAAUCUGCGCAUUCUGCUGUAUAUCUC, which self-cleavage is on record?
A: 0.11

Q: Which self-cleavage does the source give for UAACAGGGGACCACGGCUGAAGCGUCCACGCCGCAGCCCCUGUCAGAUUCUGGCGAAUCUGCGAAUCCUGCUGUAUAUCUC here?
A: 0.19

Q: For UAACAGGGGACCUCAGCAGAAGCGUUCACGUCGCAGCCCCUGUCAGAUUCUGGUGAAUCUGCGAAUUCUGCUGUAUAUCAC, which self-cleavage is on record?
A: 0.43

Q: Which self-cleavage does the source give for UAACAGGGUGCCACAGCAGAAGCGUUCACGUCGCAGCCCCUGUCAGAUUCUGGUGAAUCCGCGAACUCCGCUGUAUAUCUC here?
A: 0.04

Q: With UAACAGGGGACCACAGCGGAAGCGUUCACGUCGCAGCCCCUGUCAGAUUCUGGUGAAUCUGCGAAUUCUGCUGUAUGUCUC as the variant, how does the self-cleavage read?
A: 0.17

Q: Which self-cleavage does the source give for UAACAGGGGACCACAGCAGAAGCGUUCGCGUCGCAGCCCCUGUCAGAUUCUGGUGAAUCAGCGAAUUCUGCUGCAUAUCUC here?
A: 0.05

Q: With UAACAGGGGAGCACAGCAGAAGCGUUCACGUCGCAGCCCCUGUCAGAUUCUGGUGAAUCUGCGAAUUCUGCUGUAUAUCCC as the variant, how does the self-cleavage read?
A: 0.08

Q: For UAACAGGGGACCACCGCAGAAGCGUUCACGUCGCAGCCCCUGUCAGAUUCUGGUGAAUCCGCGAACUCUGCUGUAUACCUC, which self-cleavage is on record?
A: 0.1

Q: With UAACAGGGGACCACAGCAGAAGCGUUCUCGUCGCGGCCCCUGUCAGAUUCUGGUGAAUCUGCGAAUUCUGCUGUAUAUCUC as the variant, how does the self-cleavage read?
A: 0.65

Q: Which self-cleavage does the source give for UAACAGGGGACCACAGCGGAAGCGUACACGUCGCAGCCCCUGUCAGAUUCUGGUGAAUCUGCGUAUCCUGCUGUAUAUCUC here?
A: 0.1

Q: Which self-cleavage does the source give for UAACAGGGGACCACAGCAGAAGCGUUCGCGUCGCAGCCCCUGUCAGAUUCUGGUGGAUCUGCGAAUCCUGCUGUAUAUCUC here?
A: 0.07

Q: With UAACAGGGGACCACAGCGGAAGCGUUCACGUCGCAGCCCCCGUCAGAUUCUGGUGAAUCUGCGAAUUCUGCUGUAUACCUC as the variant, how does the self-cleavage read?
A: 0.08

Q: For UAACAGGGGACCACAGCAGAGGCGUUCACGUCGCAGCCCCUGUCAGAUUCUGGUGGAUCUGCGAAUUCUGCUGUAUAUCAC, which self-cleavage is on record?
A: 0.2

Q: With UAACAGGGGACCACAGCUGAAGCGUUCACGUCGCAGCCCCUGUCAGGAUCUGGUGAAUCUGCGAAUUCUGCUGUAUAUCUC as the variant, how does the self-cleavage read?
A: 0.03

Q: For UAACAGGGGACCGCAGCAGAAGCGUUCACGUCGCAACCCCUGUCAGAUCCAGGUGAAUCUGCGGAUUCUGCUGCAUAUCUC, which self-cleavage is on record?
A: 0.03

Q: For UAACAGGGGACCACAGCAGAAGCGUUCGCGUCGCAGCCCCUGUCAGAUUCUGGUGAAUCUGCGAAUUCUGCCGUACAUCUC, which self-cleavage is on record?
A: 0.1

Q: For UAACAGGGUGCCACAGCAGAAGCGUUCACGUCGCAGCCCCUGUCAGAUUCAGGUGAAUCUGCGAGUUCUGCUGUAUAUCUC, which self-cleavage is on record?
A: 0.08

Q: Which self-cleavage does the source give for UAACAGGGGACCACGGCAGAAGCGUUCACGUCGCAGCCCCUGUCAGAUUCUGGUGAGUCUGCGAAUUCUGCUGUAUAUCUC here?
A: 0.28

Q: Which self-cleavage does the source give for UAACAGGGGACCACAGCAGGAGCGUUCACGUCGCAGCCCCUGUCAGAUUCUGGUGAAUCUGCGAAUUCUGCUGUUUAUCUC here?
A: 0.34

Q: For UAACAGGGGACCACAGCAGGAGCGCUCACGUCGCAGCCCCUGUCAGAUUCUGGUGAAUCUGCGAAUUCUGCUGUAUAUCUC, which self-cleavage is on record?
A: 0.31

Q: For UAACAGGGGAACACGGCAGAAGCGUCCACGUCACAGCCCCUGUCAGAUUCUGGUGGAUCUGCGAAUUCUGCUGUAUAUCUC, which self-cleavage is on record?
A: 0.03
